The results in this text go back to ChEMBL document CHEMBL4888484, “Replenishing the malaria drug discovery pipeline: Screening and hit evaluation of the MMV Hit Generation Library 1 (HGL1) against asexual blood stage Plasmodium falciparum ,using a nano luciferase reporter read-out” (2022).

About 540 (0.36%) of roughly 150,000 compounds showed an effect of 50% or more. This is one part of the list.

The subject of this assay is Plasmodium falciparum. Nature of the assay: Primary screen in NF54 nanoGlo assay, in single point, at 2uM, 72h; a lower Z score goes with more inhibition. The assay is classed as functional, Erythrocyte. The note with it: timepoint 72 hour.
For `CN(C)C(=O)c1ccc2c(c1)N(CC(=O)N1CCN(Cc3ccccc3)CC1)C(=O)CO2`, the “% Inhibition” value is given as -8% and the Z score was determined as 1.11.
In the same order, the values of `Cn1cc(CCNC(=O)c2cn(CC(N)=O)nn2)c2ccc(Cl)cc21` are 4% and -0.48.
In the same order, the values of `COC(=O)C1C2CCCC2CN1C(=O)c1cn[nH]c1` (stereo not given) are -11% and 1.16.
The matching figures for `Cc1cc(C(=O)Nc2nnc(Cc3ccc(Cl)s3)o2)on1`: -3% and 0.61.
Consider `CN(CC(=O)NCC1(O)CCC(C(C)(C)C)CC1)S(C)(=O)=O` (stereo not given), for which the “% Inhibition” value is reported as 0% and the Z score is recorded as 0.05.
`O=C(Nc1ncccc1O)C1CCCC1`: the “% Inhibition” value is given as -12% and the Z score is given as 1.16.
The matching figures for `O=S1(=O)CCC(NCC(O)c2ccco2)c2cc(Cl)ccc21` (stereo not given): -12% and 1.47.
The matching figures for `Cc1ccsc1CN1CCC[C@@](O)(CO)CC1`: -5% and 0.89.
The matching figures for `C[C@H]1CN(C(=O)C(=O)Nc2ccc(OC3CCCC3)c(Cl)c2)CC(C)(C)O1`: 4% and -0.57.
For the compound `NC(=O)CC1CC(NC(=O)Nc2ccnc(-c3ccccc3)c2)C1` (stereo not given), the “% Inhibition” value is -1% and the Z score stood at 0.15.
Take `C[C@@H](Cc1ccco1)N1CC(O)=C(c2nc3ccccc3[nH]2)C1=N`: the “% Inhibition” value came out at 4% and the Z score is -0.65.
The matching figures for `Cc1cc([C@]2(C)NC(=O)N(Cc3ncc(C(C)(C)C)o3)C2=O)c(C)o1`: -3% and 0.52.
Turning to `CC(C)CN1CCC(NC2CCN(C)CC2)CC1`, the “% Inhibition” value amounted to 0% and the Z score was -0.04.
Regarding `COc1cccc(CN[C@H]2[C@H](O)[C@@H](n3ccnc3C)[C@@H]3OC[C@H]2O3)c1`, the “% Inhibition” value is 29% and the Z score is -3.3.
With `Cc1ccc(S(=O)(=O)N2CCO[C@H](c3ccccc3)C2)s1`, the “% Inhibition” value was -5% and the Z score came out at 0.78.
As for `COC[C@@]1(NC(=O)c2cccc(C(F)(F)F)n2)COc2ccccc2C1`, the “% Inhibition” value is recorded as -4% and the Z score came to 0.71.
Regarding `CCC(=O)N(Cc1cccc(F)c1)c1ccc(CC(=O)NCCN2CCCC2)cc1`, the “% Inhibition” value is reported as -2% and the Z score is listed as 0.24.
In the same order, the values of `O=C(OCc1ccccc1)N1C[C@H]2CC[C@@H](C1)N(Cc1cscn1)C2=O` are 10% and -1.41.
In the same order, the values of `CN1C[C@@H](Cn2cnc(-c3ccccc3)c2-c2cccc3cccnc23)CC1=O` are -11% and 1.52.
For `Cc1noc(C)c1C(=O)Nc1cccc2cccnc12`, the “% Inhibition” value is reported as -11% and the Z score worked out at 1.42.
The matching figures for `C[C@H]1CN(C2CCN(C(=O)Cn3ccc4ccccc43)CC2)CCO1`: -12% and 2.39.
The matching figures for `O=C1N[C@H]2CCC[C@@H]1CN(CCN1CCN(c3ccccc3)CC1)C2`: 6% and -0.83.
In the same order, the values of `O=C(NCC1CCN(c2cc(O)ncn2)CC1)c1ccoc1` are 4% and -0.74.
As to `CN(CCc1ccncc1)CC(=O)Nc1ccc(Br)cc1`, the “% Inhibition” value is recorded as -4% and the Z score worked out at 0.59.
As for `C[C@@H](CCN(C)c1nccnc1N(C)C)N1CCCC1`, the “% Inhibition” value is recorded as -2% and the Z score is 0.39.
In the same order, the values of `O=c1c(NC2CCOC3(CCOC3)C2)nccn1C1CC1` (stereo not given) are 39% and -3.54.
The matching figures for `Cc1cc(NC(=O)C(C)NC2CCCN(Cc3noc(C)n3)C2)no1` (stereo not given): 2% and -0.35.
With `COc1ccc(C(=O)N2CCC(F)(C(=O)NC3CC3)CC2)cc1F`, the “% Inhibition” value is -17% and the Z score stood at 2.16.
In the same order, the values of `O=C(CN(Cc1ccccc1)C(=O)c1ccc(F)c(Cl)c1)N1CCNCC1` are -7% and 0.68.
The matching figures for `Cc1nc2ccc(NC(=O)C3C4C=CC(C4)C3C(=O)O)cc2s1` (stereo not given): 7% and -1.15.
Consider `CC(C)C1=NO[C@H](C(=O)N(C)Cc2cccc(CN(C)C)c2)C1`, for which the “% Inhibition” value came out at 17% and the Z score is given as -2.19.
In the same order, the values of `Cc1ncc(CN2CCC(NC(=O)c3cccnc3O)C(C)C2)s1` (stereo not given) are -10% and 1.53.
In the same order, the values of `O=C(Cc1cccnc1)N1CCN(c2ccc(Cl)c(Cl)c2)CC1` are -9% and 1.08.
Regarding `Nc1n[nH]c2ncnc(N3CCc4ccccc4C3)c12`, the “% Inhibition” value is listed as -15% and the Z score came to 1.97.
In the same order, the values of `Cc1ccc(C)c(N2C[C@@H](c3nc(C4CC4)no3)CC2=O)c1` are 11% and -1.21.
The matching figures for `CCOc1ccc(NC(=O)C2[C@@H]3C=C[C@]4(O3)C(C(=O)NC3CCCCC3C)N(Cc3ccc(F)cc3)C(=O)[C@H]24)cc1` (stereo not given in full): -6% and 0.94.
Consider `CO[C@H]1C[C@H]2CC[C@@H](C1)N2c1nc(-c2ccccc2)no1`, for which the “% Inhibition” value is on record as -1% and the Z score is 0.13.
For `c1ccc(C(CN2CCc3nncn3CC2)c2ccccc2)cc1`, the “% Inhibition” value is recorded as -6% and the Z score was 0.77.
In the same order, the values of `O=C(CC[C@H]1CCCO1)Nc1ccc2c(c1)OCO2` are -1% and 0.15.
Take `Cn1cc(S(=O)(=O)Nc2cc3c(cc2C(=O)O)CCCC3)cn1`: the “% Inhibition” value was -2% and the Z score turned out to be 0.16.
In the same order, the values of `Cc1ccccc1[C@]1(O)CCN(Cc2cn(CC(N)=O)c3ccccc23)C1` are -7% and 0.87.
The matching figures for `COc1ccc(-c2cnc3ncnn3c2N2CCCN(S(=O)(=O)c3ccccc3C(F)(F)F)CC2)cc1`: -12% and 1.27.
The matching figures for `O=C(CN1CCC[C@@H]1CO)NCC1(N2CCOCC2)CCCCC1`: -5% and 0.96.
Regarding `CC(O)(CNC1CC=C(c2ccc(F)cc2)CC1)c1ccc(F)cc1` (stereo not given), the “% Inhibition” value came out at 5% and the Z score is -0.52.
In the same order, the values of `CCc1nc(CCc2ccc(F)c(F)c2)n(CC(=O)O)n1` are 5% and -0.59.
As for `CN1CC2(C[C@H]1c1noc(-c3ccccn3)n1)CN(C(=O)C1CCCCC1)C2`, the “% Inhibition” value is -19% and the Z score amounted to 2.26.
`CO[C@@]12CC[C@@H](OCCO)C[C@@H]1N(c1cc(C)nc(N)n1)CC2`: the “% Inhibition” value is -1% and the Z score came to 0.08.
In the same order, the values of `Cc1cccc2[nH]cc(-c3csc(-c4cnccn4)n3)c12` are 3% and -0.51.
The matching figures for `CC[C@H](O)C(F)(F)C(=O)NCc1ccc(O)c(OC)c1`: -13% and 2.11.
For `O=C(O)c1ccc(CN2CCC(c3ncc(Cl)cn3)CC2)cc1`, the “% Inhibition” value was -14% and the Z score was 1.61.
In the same order, the values of `O=C(NCCOC[C@H]1CCCO1)Nc1cccc(F)c1` are 9% and -0.79.
Consider `O=S(=O)(Cl)c1c[nH]c(C(F)(F)F)c1`, for which the “% Inhibition” value was -13% and the Z score is recorded as 1.54.
Consider `COC(=O)CC(C)CC(C)NC(c1nncn1C)C(C)C` (stereo not given), for which the “% Inhibition” value is recorded as 2% and the Z score is reported as -0.34.
Take `O=C(O)CCCN(Cc1ccccc1)C(=O)Cc1csc(Cc2ccc(F)cc2)n1`: the “% Inhibition” value was -2% and the Z score is reported as 0.3.
Regarding `Cn1cc(NC(=O)c2cn(-c3cc(F)c(F)c(F)c3)c(=O)c3ccccc23)cn1`, the “% Inhibition” value was -3% and the Z score is recorded as 0.41.
The matching figures for `N#Cc1ccc(S(=O)(=O)N2CCc3n[nH]c(=O)n3CC2)cc1`: -5% and 0.61.
In the case of `C=CCN(Cc1ncccc1C(=O)O)C1CCCC1`, the “% Inhibition” value is reported as -5% and the Z score came to 0.96.
Take `COCCN1CC(=O)N[C@H]2CN(c3nc(C)nc4c3cnn4C)C[C@@H]2OCc2cccc(c2)Oc2cc(ccc2OC)CCC1=O`: the “% Inhibition” value turned out to be 12% and the Z score is reported as -1.64.
The matching figures for `O=C(c1ccc2[nH]nnc2c1)N1CC[C@@](F)(c2cc(F)cc(F)c2)C1`: -15% and 1.81.
The matching figures for `Cc1nc(CN(C)[C@H]2CC[C@H](O)CC2)c(C)o1`: -7% and 0.63.
The matching figures for `O=C(O)C1CCC(=O)N(C2CC2)C1c1ccccc1` (stereo not given): 40% and -5.22.
Take `O=C(CCC1CCOC1)NC1CCCCC1CO` (stereo not given): the “% Inhibition” value is reported as -6% and the Z score was 0.57.
Regarding `Cc1noc(C)c1NC(=O)CCCCOc1cccc(C#N)c1`, the “% Inhibition” value is given as -3% and the Z score is 0.45.
The matching figures for `Cc1ccsc1[C@@H](O)CNS(=O)(=O)c1ccc(Cl)s1`: -19% and 3.28.
In the same order, the values of `Cc1ccc(CN(C)CC(=O)NCc2ccc3c(c2)OCO3)s1` are -7% and 0.83.
As for `Cc1ccc(C(=O)N2CCC(c3ccccc3)CC2)c(=O)[nH]1`, the “% Inhibition” value was -1% and the Z score was 0.12.
In the case of `Cc1ccccc1Cn1nc(C2CCOCC2)nc1C1(CO)CC1`, the “% Inhibition” value is reported as -11% and the Z score is listed as 1.23.
In the same order, the values of `OCCNc1nc2ccccc2n1Cc1coc(-c2cccs2)n1` are 3% and -0.31.
With `C[C@H](NC(=O)N[C@H]1CC[C@H](CO)CC1)c1cc2ccccc2o1`, the “% Inhibition” value is given as -13% and the Z score is given as 1.72.
For the compound `CC(C)c1ccc(C2C(S(=O)(=O)NCc3ccco3)CON2C)cc1` (stereo not given), the “% Inhibition” value is -7% and the Z score is 0.68.
With `Cc1cc(O)c(C(=O)N[C@H]2CCc3ccccc32)cn1`, the “% Inhibition” value was -8% and the Z score amounted to 0.83.
For the compound `Nc1c(F)cc(Cl)cc1C(=O)NCCN1CCS(=O)(=O)CC1`, the “% Inhibition” value stood at 7% and the Z score is -0.9.
In the same order, the values of `Cc1cc(CNC(=O)N[C@@]2(c3ccccc3)CC2(C)C)n(C)n1` are 0% and 0.
In the same order, the values of `CC(C)C(=O)N1CCCN(c2ccnc(Cc3ccc(F)cc3)n2)CC1` are -8% and 0.83.
`O=C(NCCc1cccs1)c1cc(Cl)sc1Cl`: the “% Inhibition” value worked out at 1% and the Z score was -0.11.
In the case of `CN(C(=O)CCCc1ccc2[nH]c(=O)[nH]c2c1)C1C2CCOC2C1(C)C` (stereo not given), the “% Inhibition” value is listed as 2% and the Z score is given as -0.2.
Consider `CC(=O)c1cccc(NC(=O)c2nonc2C)c1`, for which the “% Inhibition” value was determined as 36% and the Z score is -4.66.
Take `COCC(=O)N1CCC(C(=O)N2CCC(O)(Cc3ccccc3)CC2)CC1`: the “% Inhibition” value was 6% and the Z score is listed as -1.12.
In the case of `Cc1n[nH]c(C)c1CCCNC(=O)[C@@H]1CCCN1Cc1ccccc1`, the “% Inhibition” value worked out at 8% and the Z score is recorded as -1.29.
The matching figures for `CCN1C(=O)COc2ccc(NC(=O)NCC[C@@H]3C[C@@H]4C=C[C@H]3C4)cc21`: 0% and -0.03.
As to `CCO[C@@H](C)C(=O)N1CCc2[nH]nc(C3CC3)c2C1`, the “% Inhibition” value was -13% and the Z score stood at 1.69.
In the same order, the values of `Cc1ccc(N(C)C(C)C)c(C(=O)N(C)Cc2cnn(C)c2)c1` are 3% and -0.41.
In the same order, the values of `CCc1ccc(CNCc2cnc3n2CCCC3)o1` are -8% and 0.85.
In the same order, the values of `CC(C)n1cccc1C(=O)NCc1noc(C(N)=O)n1` are -2% and 0.25.
Consider `CC1(c2nccc(NC(=O)[C@H]3CCO[C@@H]3c3ccccc3)n2)CC1`, for which the “% Inhibition” value was -9% and the Z score was 0.88.

By % Inhibition is commonly meant the drop in the measured response relative to a control, in per cent.
